Test results published in article PMC4336329 (PLoS ONE, 2015).
Screen size: about 310,000 compounds; about 14,000 (4.5%) showed an effect of 50% or more. Effects have a minus sign here. This is one part of the list.

molecular target: human ether-à-go-go-related gene (hERG) potassium channel (human, UniProt Q12809); assay: primary screen, population patch clamp on CHO cells stably expressing hERG
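Further: peak tail current of the secondary pulse compared with the same well before compound.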

human ether-à-go-go-related gene (hERG) potassium channel, sequence (Q12809 whole entry, looked up): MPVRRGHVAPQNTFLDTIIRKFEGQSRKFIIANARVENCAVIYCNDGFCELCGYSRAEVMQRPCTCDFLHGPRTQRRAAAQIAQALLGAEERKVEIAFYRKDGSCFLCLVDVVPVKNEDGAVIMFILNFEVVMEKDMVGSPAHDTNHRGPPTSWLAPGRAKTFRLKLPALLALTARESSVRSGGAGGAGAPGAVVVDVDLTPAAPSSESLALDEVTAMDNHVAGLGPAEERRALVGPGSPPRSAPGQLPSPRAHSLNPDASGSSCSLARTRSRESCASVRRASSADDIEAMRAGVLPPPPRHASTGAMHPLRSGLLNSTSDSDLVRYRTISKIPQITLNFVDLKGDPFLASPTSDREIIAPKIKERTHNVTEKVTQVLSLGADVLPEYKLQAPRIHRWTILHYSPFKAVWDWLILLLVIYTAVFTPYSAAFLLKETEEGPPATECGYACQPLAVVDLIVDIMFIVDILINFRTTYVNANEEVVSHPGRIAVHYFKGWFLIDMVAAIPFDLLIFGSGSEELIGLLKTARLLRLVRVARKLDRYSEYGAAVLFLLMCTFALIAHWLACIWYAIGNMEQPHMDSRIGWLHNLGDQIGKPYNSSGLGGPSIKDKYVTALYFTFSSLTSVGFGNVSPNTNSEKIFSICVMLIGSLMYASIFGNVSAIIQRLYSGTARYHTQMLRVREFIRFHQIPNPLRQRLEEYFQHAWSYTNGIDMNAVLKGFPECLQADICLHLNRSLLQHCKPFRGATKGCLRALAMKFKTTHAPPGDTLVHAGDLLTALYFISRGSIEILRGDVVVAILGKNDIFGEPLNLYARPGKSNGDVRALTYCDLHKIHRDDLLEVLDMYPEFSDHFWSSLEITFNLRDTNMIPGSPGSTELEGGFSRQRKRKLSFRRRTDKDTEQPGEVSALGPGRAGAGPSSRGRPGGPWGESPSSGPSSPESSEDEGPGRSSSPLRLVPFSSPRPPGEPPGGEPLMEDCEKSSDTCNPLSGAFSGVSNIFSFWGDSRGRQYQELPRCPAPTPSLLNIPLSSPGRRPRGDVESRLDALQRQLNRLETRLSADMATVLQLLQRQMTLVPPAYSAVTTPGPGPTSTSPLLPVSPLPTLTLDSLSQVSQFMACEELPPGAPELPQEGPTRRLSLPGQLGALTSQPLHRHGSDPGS

Compound | hERG current change (%, negative = inhibition) at 10uM
CC1=C(C(=O)OCCC(C)C)C(c2ccc3c(c2)OCO3)NC(=O)N1 (centres unmarked) | 3.5%
Cc1c(Cl)cccc1NC(=S)N(CCN(C)C)C(C)c1ccco1 (centres unmarked) | -55.9%
C=CCn1c(CNC(=O)CCC)nc2ccccc21 | 6.74%
CC(Cc1c[nH]c2ccccc12)NC(=O)OCCCl (centres unmarked) | 11.7%
COC(=O)c1c(C)[nH]c(C(=O)OC(C)C(=O)N(C)C2CCCCC2)c1C (centres unmarked) | -2.13%
CC1CN(S(=O)(=O)c2cccc(C(=O)OCC(=O)NCc3ccccc3)c2)CC(C)O1 (centres unmarked) | -15.7%
C=CCn1c(=O)[nH]c2cc(C(=O)N3CCN(c4ccc(C(C)=O)cc4)CC3)ccc2c1=O | -19.8%
CCc1ccc(-n2c(O)c(/C=N/NC(=O)c3ccncc3)c(=O)[nH]c2=O)cc1 | 17%
O=C(Nc1ccc(N2CCN(C(=O)c3ccco3)CC2)cc1)c1cccs1 | -8.15%
CC(C)(C)C1CCC(=NNC(=O)C(=O)NC2CCCCC2)CC1 (centres unmarked) | 3.37%
Cc1ccc(S(=O)(=O)N(C)C)cc1NC(=O)COC(=O)CCC(=O)c1cccs1 | -21.8%
Cc1ccc(C(=O)NNC(=O)C2CCN(Cc3ccc(Cl)c(Cl)c3)CC2)cc1 | 3.43%
CC(C)(C)[C@@H]1C=C(C(=O)N2CCOCC2)O[C@H](OCc2ccc(CO)cc2)C1 | -7.33%
CC(C(=O)N1CCCc2ccccc21)N1C(=O)c2ccccc2C1=O (centres unmarked) | -21.3%
CC(=O)Nc1ccc(S(=O)(=O)NNC(=O)c2cccc([N+](=O)[O-])c2)cc1 | 17.8%
COc1ccccc1NC(=O)C(C)OC(=O)CCSc1ccc(F)cc1 (centres unmarked) | 1.41%
Cc1nn(CC(=O)Nc2ccc(Cl)cc2Cl)c(=O)c2ccccc12 | 3.83%
CN(C)CCn1c2c(c(SCC(=O)NCc3ccccc3)nc1=O)CCCC2 | -20.8%
Cc1ccccc1NC(=O)CN1C(=O)CSc2ccccc21 | 17.3%

Compound | hERG current change (%, negative = inhibition) at 10uM
Cc1cccc(C)c1NC(=O)CNC(=O)C(Cc1ccccc1)NC(=O)c1ccccc1 (centres unmarked) | 13.5%
CS(=O)(=O)N(CC(=O)N1CCCC1)c1ccc(Cl)c(Cl)c1 | 3.05%
CCCNC(=O)c1csc(Nc2cccc3ccccc23)n1 | -30%
CN1CCN(CC(=O)Nc2nc(-c3ccccc3)cs2)CC1 | -40.4%
Cn1c(=O)c2c(nc(/C=C/c3cccc(Cl)c3)n2C)n(C)c1=O | 19.4%
CN(C(=O)COC(=O)c1n[nH]c(=O)c2ccccc12)c1ccccc1 | -12.2%
Cc1cc(C)n(CC(=O)N2c3ccccc3Sc3ccc(C(F)(F)F)cc32)n1 | -7.56%
CC(C)(C)c1ccc(C2=CC(c3ccccc3)n3ncnc3N2)cc1 (centres unmarked) | 0.793%
CC(C(=O)NCc1ccc(F)cc1)n1ccc2cc(S(=O)(=O)N3CCCC3)ccc21 (centres unmarked) | -12.4%
CCc1cc(=O)oc2cc(C)cc(OCC(C)=O)c12 | 5.77%
Cc1nc(Sc2nnnn2-c2ccccc2)c(C#N)c(C)c1C | -21.3%
Cc1cc(C)n(-c2nnc(C)n2/N=C/c2ccccc2O)n1 | -7.13%
Cn1c(=O)oc2cc(S(=O)(=O)NCCC(=O)N3CCc4ccccc4C3)ccc21 | -19.5%
COc1ccc(Cl)cc1S(=O)(=O)N(C)CC(=O)NCc1ccccn1 | 17.8%
CCN(CC)CCCNC(=O)c1cc(Nc2ccc(OC)cc2)nc2ccccc12 | -53.8%
Nc1c(Cl)ncnc1N/N=C/c1ccc2ccccc2n1 | -11.7%
COc1ccc([C@@H]2C[C@H]3CN(Cc4ccccc4OC)C(=O)[C@]34CCCN24)cc1C | -46.6%
COc1ccccc1C(C(=O)NC1CCCCC1)N(C(=O)c1csnn1)C1CC1 (centres unmarked) | 0.419%
O=C(c1ccccc1)n1c(=S)nc2ccccn21 | 8.23%

Compound | hERG current change (%, negative = inhibition) at 10uM
COc1ccc(N2CCN(C(=O)c3ccc(S(=O)(=O)N4CCCC4)cc3)CC2)cc1 | 19.3%
CN(C)S(=O)(=O)N1CCN(C(=O)c2ccccc2Cl)CC1 | 0.739%
O=C(Cn1c(=O)oc2cc(S(=O)(=O)N3CCCCC3)ccc21)N1CCc2ccccc2C1 | 1.52%
Cn1c(Cc2cccs2)nnc1SCC(=O)Nc1ccc(F)cc1F | -15.5%
COc1ccccc1NCc1nnc(SCC(=O)N/N=C/c2ccco2)n1-c1ccc(Cl)cc1Cl | -0.294%
CC(C)(C)N/N=C1\CC(c2ccccc2)Oc2ccccc21.Cl (centres unmarked) | 5.46%
CSc1ccc(/C=C/C(=O)OCC(=O)N(C)CCC#N)cc1 | 3.61%
CCS(=O)(=O)c1nc2ccccc2n1CC(=O)N1CCCCC1 | 11.2%
O=C(NCc1ccccc1)NS(=O)(=O)c1ccccc1Cl | -4.3%
O=C(c1ccsc1)N1CCCC(Nc2cccc(F)c2)C1 (centres unmarked) | 12.2%
CCCOC(=O)CCn1c(=S)oc2ccccc21 | -7.36%
O=C(C[n+]1ccccc1)Nc1ccccc1[N+](=O)[O-].[Cl-] | 21.2%
COc1ccc(CN2C3CCCC2CC(NC(=O)Nc2ccccc2)C3)cc1 (centres unmarked) | -74.1%
CC(NC(=O)Cn1cnnn1)c1cccc(C(F)(F)F)c1 (centres unmarked) | 21.9%
O=C1CCC(=O)N1c1ccc(NCc2ccccc2Cl)c([N+](=O)[O-])c1 | -2.79%
Cc1cc(C)c2cc(CN(CC3CCCO3)C(=S)NCc3ccco3)c(=O)[nH]c2c1 (centres unmarked) | 0.203%
CC(C(=O)NC1C(=O)N2C(C(=O)O)=C(CSc3nnnn3C)CSC12)n1cc(Br)cn1 (centres unmarked) | 25.1%
Cc1c(/C=N/n2cnnc2)c2ccccc2n1C | 1.25%
